Earlier results, collected in patent publication US20090156668A1, “Ginkgolide Compounds, Compositions, And Extracts, And Uses Thereof” (priority 2004, published 2009).

Details: solutions with pH>7; cited from earlier work

For CC(C)(C)[C@]1(O)CC2OC(=O)CC23C(=O)OC2OC(=O)[C@H](O)C231 (stereo partly shown) [BB, bilobalide], the stability in solution is listed as “instability”.
